Experimental data reported in a compilation of properties of binary mixtures (doi:10.1016/j.molliq.2016.06.018).
The densities may have been worked out from excess volumes.

Assay: xn = mol fraction of the nth substance listed
Conditions: 100 kPa

CCCCCCCCN1CCCC1=O + CCCC[n+]1ccn(C)c1.O=S(=O)([N-]S(=O)(=O)C(F)(F)F)C(F)(F)F
mass density [kg/m3]
Conditions | x1 = 0.1125 | x1 = 0.2205 | x1 = 0.3048 | x1 = 0.3915 | x1 = 0.5011 | x1 = 0.5983 | x1 = 0.7076 | x1 = 0.7976 | x1 = 0.8911 | x1 = 1
298.15 K | 1389.1 | 1343.8 | 1306.6 | 1266.7 | 1213.5 | 1163.6 | 1103.9 | 1051.3 | 992.8 | 918.5
303.15 K | – | 1339.2 | 1302.1 | – | 1209.2 | 1159.4 | – | 1047.4 | 989 | 914.8
308.15 K | 1379.8 | 1334.7 | 1297.7 | – | – | 1155.3 | 1095.9 | 1043.5 | 985.2 | –
313.15 K | 1375.2 | – | 1293.2 | 1253.5 | 1200.7 | 1151.2 | 1091.9 | 1039.6 | 981.4 | 907.5
318.15 K | 1370.5 | 1325.6 | 1288.8 | 1249.2 | 1196.5 | 1147.1 | 1087.9 | 1035.8 | 977.6 | 903.8
323.15 K | 1365.9 | 1321.1 | 1284.3 | 1244.8 | 1192.2 | 1143 | 1084 | 1031.9 | – | 900.2

CCCC[n+]1ccn(C)c1.O=S(=O)([N-]S(=O)(=O)C(F)(F)F)C(F)(F)F + CCCCCCCCN1CCCC1=O
x2 = 0
Conditions | mass density [kg/m3]
298.15 K | 1433.7
303.15 K | 1428.9
308.15 K | 1424.1
313.15 K | 1419.4
318.15 K | 1414.6
323.15 K | 1409.9
